The campaign covered roughly 310,000 compounds. About 14,000 (4.5%) showed an effect of 50% or more. Effects have a minus sign here. The list shows a part of the results.
Biological target: human ether-à-go-go-related gene (hERG) potassium channel (human, UniProt Q12809)
Assay: primary screen, population patch clamp on CHO cells stably expressing hERG
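Also: peak tail current of the secondary pulse compared with the same well before compound.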

human ether-à-go-go-related gene (hERG) potassium channel, sequence (Q12809 whole entry, looked up): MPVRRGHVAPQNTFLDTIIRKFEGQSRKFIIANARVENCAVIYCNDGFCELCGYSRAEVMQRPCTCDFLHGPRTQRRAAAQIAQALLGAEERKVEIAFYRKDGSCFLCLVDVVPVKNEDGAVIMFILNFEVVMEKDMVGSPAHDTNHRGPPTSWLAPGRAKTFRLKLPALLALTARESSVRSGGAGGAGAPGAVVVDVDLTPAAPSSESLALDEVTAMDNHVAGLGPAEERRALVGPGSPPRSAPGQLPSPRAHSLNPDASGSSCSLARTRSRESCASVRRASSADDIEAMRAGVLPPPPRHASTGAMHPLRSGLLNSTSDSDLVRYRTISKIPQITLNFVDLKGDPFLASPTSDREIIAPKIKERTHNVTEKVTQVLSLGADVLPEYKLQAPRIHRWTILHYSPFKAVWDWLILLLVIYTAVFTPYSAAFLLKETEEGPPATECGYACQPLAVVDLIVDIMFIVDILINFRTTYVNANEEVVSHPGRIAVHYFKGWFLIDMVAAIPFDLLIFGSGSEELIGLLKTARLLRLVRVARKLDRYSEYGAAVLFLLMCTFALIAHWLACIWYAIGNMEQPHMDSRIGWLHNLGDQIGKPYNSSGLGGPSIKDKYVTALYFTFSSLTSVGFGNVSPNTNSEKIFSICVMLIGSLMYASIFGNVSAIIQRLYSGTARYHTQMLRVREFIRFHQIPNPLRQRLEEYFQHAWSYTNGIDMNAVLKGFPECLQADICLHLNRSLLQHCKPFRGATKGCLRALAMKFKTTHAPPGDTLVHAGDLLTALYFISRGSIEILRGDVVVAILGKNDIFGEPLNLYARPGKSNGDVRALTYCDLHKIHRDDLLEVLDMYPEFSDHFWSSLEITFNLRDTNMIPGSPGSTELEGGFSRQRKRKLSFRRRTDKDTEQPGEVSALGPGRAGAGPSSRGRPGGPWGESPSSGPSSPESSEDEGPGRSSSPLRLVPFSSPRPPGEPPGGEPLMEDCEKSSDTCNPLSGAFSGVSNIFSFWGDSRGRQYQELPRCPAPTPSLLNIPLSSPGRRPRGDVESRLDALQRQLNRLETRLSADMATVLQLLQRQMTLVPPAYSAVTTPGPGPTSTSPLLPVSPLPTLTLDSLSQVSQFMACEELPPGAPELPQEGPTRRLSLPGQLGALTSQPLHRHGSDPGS

Point of comparison: `CC(C)C1Cc2c(sc(NC(=S)NC(=O)c3ccccc3)c2C#N)CO1` (stereo not shown), “hERG current change (%, negative = inhibition) at 10uM” value 3.07%. Against it:
- COC(=O)c1nc2n(n1)C(c1ccc(OC)c(OC)c1)C(C(=O)OC1CCCCC1)=C(C)N2 (stereo not shown) — lower, -11.1%
- O=C(Nc1ccc2c(c1)OCCO2)c1cnc2n(c1=O)CCS2 — lower, 0.938%
- Cc1ccc(CSCC(=O)NCc2cccs2)cc1 — lower, -2.02%
- CSc1nncn1/N=C/c1ccc([N+](=O)[O-])cc1 — lower, -30.7%
- CSc1ccc(Cl)c(C(=O)Nc2ccc(OCC(N)=O)cc2)c1 — lower, -13.8%
- CC(C)(C)c1ccc(OCCSc2nc3ccccc3n2CC(=O)O)cc1 — higher, 20.1%
- O=C1CC(C(=O)N2CCOCC2)C2(CCCC2)O1 (stereo not shown) — higher, 5.1%
- O=C(O)c1cc2n(n1)C(C(F)(F)F)CC(C1CC1)N2 (stereo not shown) — lower, -9.42%
- Cc1cc(C(F)F)n2nc(C(=O)Nc3ccc(S(=O)(=O)NC45CC6CC(CC(C6)C4)C5)cc3)nc2n1 — lower, -8.28%
- O=C1NC2(CCCCC2)C(=O)N1CC(=O)N(Cc1ccccc1)c1ccccc1 — lower, -10.9%
- C=CCN1C(=O)/C(=C2/Sc3ccc(OC)cc3N2CC)SC1=S — higher, 24.1%
- Cl.O=C(c1ccccc1)N1CCN(CC(O)COc2cccc3ccccc23)CC1 (stereo not shown) — lower, -28.1%
- O=C1N/C(=N/O)S/C1=C\c1ccccc1-n1cccn1 — higher, 5.29%
- CCCCN1C(=O)CCC(C(=O)O)C1c1ccc(OC)cc1 (stereo not shown) — lower, -6.12%
- CC(C)=CCN1CCN(Cc2nc(C(C)C)cs2)CC1CCO (stereo not shown) — lower, -12.9%
- CCc1nnc(NC(=O)c2ccc(S(=O)(=O)N(CC)Cc3ccccc3)cc2)o1 — lower, -12.9%
- Cc1ccc(NC(=O)C2CC2c2ccccc2)cc1 (stereo not shown) — lower, 2.96%
- COc1ccc(NS(=O)(=O)c2cccc(NC(=O)CCC(=O)c3ccc(Cl)cc3)c2)cc1 — higher, 3.74%
- COc1ccc(/C=C/C(=O)Nc2cccnc2)cc1OC — higher, 24.9%
- CC1(C)OC(=O)N2CCc3ccccc3C21C (stereo not shown) — lower, -7.73%
- COc1ccc(CCC(=O)Nc2nc3ccccc3[nH]2)cc1 — higher, 14.3%
- Cc1ccc(OC(=O)C2c3ccccc3Oc3ccccc32)cc1C — higher, 13.8%
- Cc1cccc(NC(=S)NNC(=O)c2ccccc2OC(F)F)c1 — higher, 19.2%
- Cc1cc2ccccc2n1CCNC(=O)C1CCCC1 — higher, 10.2%
- CCC(Sc1ncccc1C(=O)OCCN1CCCC1=O)C(=O)NCc1ccco1 (stereo not shown) — lower, -9.56%
- C=CCNCCCOc1ccc(Cl)cc1Br.O=C(O)C(=O)O — lower, -42.6%
- CC(=O)Nc1ccc(-n2c(C)c(C(C)=O)c(C(C)=O)c2C)cc1 — higher, 7.02%
- COC(=O)c1cc(C(C)=O)c(C)[nH]c1=O — higher, 37.9%
- Cn1cnc2c1c(=O)n(Cc1ccc(F)cc1Cl)c(=O)n2C — higher, 5.82%
- CCOc1cc(C(=O)NC(C)C2CC3CCC2C3)cc(OCC)c1OCC (stereo not shown) — lower, -10.7%
- COc1ccccc1CNC(=O)C1CCC(CNS(=O)(=O)c2ccc(NC(C)=O)cc2)CC1 (stereo not shown) — higher, 16.5%
- COc1ccc(Cn2c(C3CCCCC3)nc3c(c(=O)c4ccccc4n3C)c2=O)cc1 — higher, 19.5%
- CCCC(=O)N/C(N)=N/c1nc(C)c2ccccc2n1 — lower, -9.34%
- Cc1ccc(-n2c(SCC(=O)NCC3CCCO3)nnc2-c2ccoc2C)cc1 (stereo not shown) — lower, -55.6%
- O=C(CSc1ccc2nnc(-c3ccccn3)n2n1)Nc1ccccc1 — lower, -23.4%
- O=c1n(Cc2ccc(F)cc2)nc2n1-c1ccccc1SC2 — lower, 1.87%
- COc1cc(N2C(=O)CSC2=S)cc(OC)c1OC — higher, 4.66%
- CC(=O)Nc1ccc(NC(=O)CSc2nc3ccccc3nc2N2CCCCC2)cc1 — higher, 7.89%
- O=C(CN1CCC(Cc2ccccc2)CC1)NC(=O)NC1CCCCC1 — lower, -39.6%
- CC(C)(C)C(=O)C[n+]1ccccc1.[Br-] — higher, 11.8%
- COc1ccccc1N1CCN(/N=C/c2cc(OC)c(O)c(OC)c2)CC1 — lower, -28.7%
- CCOC(=O)COc1ccc2c(C)cc(=O)oc2c1C(=O)c1ccccc1 — lower, -20.7%
- COc1cc2ccccc2cc1C(=O)Nc1ccccc1C — higher, 17.1%
- Cc1cccc(C(=O)Nc2ccccc2C(=O)OCC(=O)Nc2ccc(C#N)cc2)c1 — lower, -8.69%
- COc1cccc(Sc2ccccc2CN(C)C)c1.Cl — lower, -13%
- O=C(c1ccco1)N1CCN(Cc2nc(Cc3ccccc3)no2)CC1 — lower, -8.87%
- COc1ccc(/C=N/NC(=O)c2nnn(-c3nonc3N)c2-c2cccs2)c(OC)c1 — higher, 13.1%
- COc1cccc2c1OC1(C)CC2NC(=O)N1c1cccc(C(=O)N2CCN(c3ccccc3)CC2)c1 (stereo not shown) — higher, 9.75%
- COc1ccc(CC(C)N2CCN(Cc3ccccc3)CC2)cc1OC (stereo not shown) — lower, -33.1%
- COc1ccc(CNC(=O)N2CCN(c3ccccc3OC)CC2)cc1 — lower, 0.951%
- CC1=NNC(=O)C1CC(=O)N/N=C(\C)c1cccs1 (stereo not shown) — higher, 17.4%
- CCCn1c(N)c(Sc2ccccc2)c(=O)n(CCC)c1=O — lower, -7.71%
- CC(C)Nc1nnc(SCc2cc(=O)n3ccsc3n2)s1 — higher, 6.88%
- COC(=O)CCC(=O)N1CCCC(CO)(Cc2ccccc2C)C1 (stereo not shown) — higher, 16.9%
- O=C(COc1ccccc1O)NCCN1CCOCC1 — higher, 25.3%
- Cc1c(C#N)c(O)n(CCO)c(=O)c1N=Nc1ccc2c(c1)COC2=O — lower, 0.9%
- COc1ccc(OCCC(=O)OCC(=O)Nc2ccc(S(=O)(=O)N3CCOCC3)cc2)cc1 — higher, 72.7%

Source: publication PMC4336329 (PLoS ONE, 2015)
